Laboratory results published in article PMC3769975 (ChemMedChem, 2012).

Tested on: M2 ion channel (synthetic M2 peptide reconstituted in micelles)
Format: binding, influenza A virus

Structure (SMILES)	binding to M2: peak at 10.9 ppm (Trp41 Hε) in 1D 1H NMR
NC12CC3CC(CC(C3)C1)C2 [amantadine, reference compound]	new peak rising at 10.9 ppm
CCC(C)(C)n1nnnc1C(C(C)C)N(CCO)Cc1cc2cc(C)c(C)cc2[nH]c1=O (centres unmarked) [Compound 7, 3-(((2-hydroxyethyl)(2-methyl-1-(1-tert-pentyl-1H-tetrazole-5-yl)propyl)amino)methyl)-6,7-dimethylquinolin-2(1H)-one]	no peak formation at 10.9 ppm
